These results are taken from the RNAGym collection of RNA variant scans (doi:10.7554/elife.90254).

Read counts are not given, so values of variants with three or more changes are uncertain.

B1: LINE1-mini (parent)
chain: GGCAGAGCUCAACACAGCGUGGCAAAGUGGCUGUGGCUAGACUGCC

The variants in the series derive from B1. Description: self-cleavage, relative activity (ratio to wild type); higher = more cleavage; in vitro, sequencing; the parent is a self-cleaving ribozyme.
Consider GGCACAGCUCAACACAGCGUGGCGUAGUGGCUGUGGCUAGACCGCC, for which the self-cleavage stood at 0.02.
For GGCACAGCUCAACACAGCGUGGCGAAGUGGCUGUUGCUAGACUGCC, the self-cleavage was found to be 0.09.
The same measure for GGCACAGCUCAACUGAGCGUGGCAAAGUGGCUGUGGCAAGACCGUC: 0.03; for GGCACAGCUCAACACUGCGUGGCAAAGUAGUUGUGGCUAGAUUGCC: 0.02; for GGCACAGCUCAACACCGCGUGGCAAAGUGGCUGAGGCUAGACUGCC: 0.1.
As for GGCACAGCUCAACACAGCGUGGCGAAGUGGCUGUGGCUUGACUGCC, the figure is 0.03; as for GGCACAGCUCAACACAGCGUGGCUAAGUGGCUUUGGAUAGACUGCC, 0.12.
As for GGCACAGCUCAACACAGCGUGGCUAAGUGGAUGUGGCUAGACUGCC, the figure is 0.07; as for GGCACAGCUCAACACUGCGUGGCAAAGUGGCUGUGGUUAGACUGCC, 0.02; as for GGCACAGCUCAACGCAGCGUGGCAAAGUGGCUGUGGCUAGCCUGCC, 0.01.
For GGCACAGCUCAACACAGCGUGGCACAAUGGGUGUGGCUAGACUGCC, the self-cleavage is 0.02.
The same measure for GGCACAGCUCAACACAGCGUGGCUAAGUGGCUGUGGCUAGACUGAC: 0.02; for GGCACAGCUCAACUCAGCGUGGCCAAGUGGCUGUGGCUAGACUGAC: 0.03.
As for GGCACAGCUCAACGCAGCGUGGCAAAGUGGCUGUGGCUAGAUUGCC, the figure is 0.03; as for GGCACAGCUCAACACAGCGUGGCAUACUGGCUGUGGCUAGACUGAC, 0.06.
GGCACAGCUCAACACUGCGUGGCCGAGUGGCUAUGGCUAGACUGCC: the self-cleavage was found to be 0.03.
With GGCACAGCUCAACUUAGCGUGGCUACGUGGCUAUGGCUAGACUGCC, the self-cleavage turned out to be 0.04.
As to GGCACAGCUCAACACAGCGUGGCUAAGUGGCGAUGGCUAGACCGCC, the self-cleavage amounted to 0.03.
Take GGCACAGCUCAACACAGCGUGGCAUCAUGGCUGUGGCUAGACUGCC: the self-cleavage turned out to be 0.05.
As for GGCACAGCUCAACGCAGCGUGGCAAAGUGGCUGUUGCUAGACUGCC, the figure is 0.13.
For GGCACAGCUCAACACAGCGUGGCAGAGUGGCUGGUGCUAGACUGCC, the self-cleavage came out at 0.35.
As for GGCACAGCUCAACACAGCGUGGCAGAGUGGCUGUGGCUAUACUGCC, the figure is 0.35; as for GGCACAGCUCAACACCGCGUGGCAAAGUGGCUAUGGCUAGACUGCC, 0.14.
As for GGCACAGCUCAACACAGCGUGGCGAAGCGACUCUGGCUAGACUGCC, the figure is 0.05; as for GGCACAGCUCAACACCGCGUGGCAAAGUGGAUGUGGCUAGACUGCC, 0.01; as for GGCACAGCUCAACUCAGCGUGGCAAAGUGGCUGUCGCUAGACUGCC, 0.05.
The same measure for GGCACAGCUCAACACAGCGUGGCGAACUGGCUGUGGCUAGACUGCC: 0.28; for GGCACAGCUCAACUCAGCGUGGCAAAGUGGAUGUGGCUAUACUGCC: 0.02; for GGCACAGCUCAACACCGCGUUGCAAAGUGGCUGUGGCUAGACUGCC: 0.02.
Consider GGCACAGCUCAACACAGCGUGGCAGAGUGGCUGUGGGUAGACUGCA, for which the self-cleavage was found to be 0.05.
The same measure for GGCACAGCUCAACCCAGAGUGGCAAAGUGGCUGUGGCUAGACUGUC: 0.04; for GGCACAGCUCAACUAAGCGUGGCAAAGUGGCUGUGGCUAGACUGUC: 0.05; for GGCACAGCUCAACACGGCGUUGCAGAGUGGCUGUGGCUAGACUGCC: 0.03.
On to GGCACAGCUCAACACUGCGUGGCAAAGUGGCUUUGGCUAGACUGCC, for which the self-cleavage worked out at 0.09.
The same measure for GGCACAGCUCAACGCAGCGUGGCAAAGUGUCUGAGGCUAGUCUGUC: 0.01; for GGCACAGCUCAACCCAGUGUGGCAAAGUGGCUGUGGCUAGACUGCC: 0.03.
With GGCACAGCUCAACACUGCGUGGCAAAGUGGCUGUGGCUGAACUGCC, the self-cleavage was found to be 0.04.
As for GGCACAGCUCAACACGGCGUGGCAAUGUGGCUGUGGCUAGACUGCC, the figure is 0.02.
The same measure for GGCACAGCUCAACGCAGCCUGGCAAAGUGGCUGUGGCUAGACAGCC: 0.02; for GGCACAGCUCAACGAGGCGUGACAAAGUGGCUGUGGCUAGCCUGCC: 0.02.
The same measure for GGCACAGCUCAACCCAGCGUGGCAAAGUGGCUGUUGCUAGACAGAC: 0.01; for GGCACAGCUCAACACCGCGUGGCAAGGUGGCUCUGGCUAUACUGCC: 0.06.
Regarding GGCACAGCUCAACACAGCGUGGCUAAGUGGCUGUGGCUAGACUGUU, the self-cleavage was determined as 0.07.
The same measure for GGCACAGCUCAACACAGCGUGGCAACGUGGCUGUGGCUAGACUGCG: 0.06.
As for GGCACAGCUCAACGCAGCGUGGCAAAGUGGCUGUGGCUAGACAGCC, the figure is 0.01; as for GGCACAGCUCAACCCAUCGUGGCAAAGUGGCUGCGGCGAGACAGGC, 0.03; as for GGCACAGCUCAACACCGCGUGGCAAAGUGGCUGUGACUAGACUGUC, 0.03.
As for GGCACAGCUCAACACUGCGCGCCAAAGUGGCUGUGGCUAGACUGCC, the figure is 0.01; as for GGCACAGCUCAACUCAGGGUGGCAAAGUGGAUGUGGCUAGACAGUC, 0.04.
Regarding GGCACAGCUCAACACAGCGUGGCAACGUGGCUGUGGCUAGAUUGCC, the self-cleavage was determined as 0.06.
The same measure for GGCACAGCUCAACACGGCUUGGCAAAUGGGCUGUGGCUAGACUGCC: 0; for GGCACAGCUCAACGCCGCGUGGCAAAGUGGCUGUGGCUAGAAUGCC: 0.01.
The same measure for GGCACAGCUCAACUCAGCGUGGCAAAGUGACUGUGGCUAAAAUGCC: 0.26; for GGCACAGCUCAACGAAGCGUGGGAAAGUGGCUGUGGCUAGACUGCC: 0.03; for GGCACAGCUCAACACAGCGUGGCAGAGUGGCUUUGGCUUGACUGCC: 0.04.
The same measure for GGCACAGCUCAACACAGCGUGGCAGAGUGGCUGUGGCUGGACUGCC: 0.07.
